Variants at the floor of the assay are shown more often than the library holds them.
B1: TPR 5TU (parent)
chain: GGAUCUUCUCGAUCUAACAAAAAAGACAAAUCUGCCACAAAGCUUGAGAGCAUCUUCGGAUGCAGAGGCGGCAGCCUUCGGUGGCGCGAUAGCGCCAACGUUCUCAACUAUGACACGCAAAACGCGUGCUCCGUUGAAUGGAGUUUAUCAUG

Variants of: B1
Test: polymerase ribozyme fitness, log enrichment relative to wild type (log ratio); higher = more active; in vitro selection for triplet polymerase activity
How it was run: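 Streptavidin-bead capture of gel-excised extended constructs, followed by RT-PCR, closed a single triplicate in vitro selection round. That round began by annealing PCR-built, transcribed mutant libraries of each subunit of a heterodimeric triplet polymerase ribozyme with a biotinylated primer, the partner subunit and triplets, then incubating them frozen at −7 °C. After Illumina sequencing of inputs and outputs, genotypes needed ≥10 input reads and ≥1 read per output. Fitness is the base-2 logarithm of genotype enrichment over wild-type enrichment, using inverse-variance-weighted replicate averages.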

Point of comparison: C14A G58C, “polymerase ribozyme fitness (log ratio)” value -1.28. Against it:
- U13G U31A G58A G67A G68C C75U C105G — lower, ≤ -4.2
- U13G U31C A40G G58U U78C C85G C114U G141U — lower, ≤ -4.2
- U13G U31C A41U G70C C85A C105U C114A G141A U148A — lower, ≤ -4.2
- U13G U31C C116G A119U U148G — lower, ≤ -4.2
- U13G U44A A49C G88C — lower, ≤ -4.2
- U13G U53A G59C C87U C96A A113G C125U — lower, ≤ -4.2
- U13G U53A U56A G84A — lower, ≤ -4.2
- U13G U55G C57G C76U G83U A106U — lower, ≤ -4.2
- U13G U56A C87A C93A A107C U151A — lower, ≤ -4.2
- U13G U56A U77C G84A U144A — lower, ≤ -4.2
- U13G U56G G84U C85A C99U — lower, ≤ -4.2
- U13G U78G G86U G140A G141A — lower, ≤ -4.2
- U13G U127A — lower, ≤ -4.2
- C14A — higher, -1.08
- C14A A16C U56G C57G A91C G136U — lower, ≤ -4.2
- C14A A16G A64C G83C C125U G136U U145G — lower, ≤ -4.2
- C14A A17C A26G C36A C85G C96U A97U C108U A142C — lower, ≤ -4.2
- C14A A17C A29U G46C A60C G70C C108U G140U — lower, ≤ -4.2
- C14A A17C C93U C116G — lower, -2.99
- C14A A17G A29C A37G G68U G88C A119U G152C — lower, ≤ -4.2
- C14A A17U A21G C54U A60G — lower, -3.75
- C14A A19G A29G C38U A41U A107U A142C — lower, ≤ -4.2
- C14A A19U A21C A60G — lower, -1.8
- C14A A20C C27A U44A G70A G83A A107G U135G — lower, ≤ -4.2
- C14A A20C G58C G70C G94U C123G — lower, ≤ -4.2
- C14A A20G A49G C95U C105G C118G A120G U146A U148C — lower, ≤ -4.2
- C14A A20G G67A C85A G126A U144A — lower, ≤ -4.2
- C14A A20U A26U U77G C118A G140U G141U — lower, ≤ -4.2
- C14A A21U A26U A52C G68A C95U A98U — lower, ≤ -4.2
- C14A A22C A23U C54U C93G C95U C125U C132A — lower, ≤ -4.2
- C14A A22U U31C U53A G80U G92U A142U — lower, ≤ -4.2
- C14A A24G A29U G50U U53A U55A G92A C99G U102A C114G U134G — lower, ≤ -4.2
- C14A A24U G59C C93G C99U U139G G143U — lower, ≤ -4.2
- C14A A26C U55G G68C C72U G92A A147G — lower, ≤ -4.2
- C14A A26U A37G C54G G94U — lower, ≤ -4.2
- C14A A26U C76U C96A A97C C118G — lower, ≤ -4.2
- C14A A28G G86U C93U C114U G136A U146C — lower, ≤ -4.2
- C14A A29C C96G — lower, ≤ -4.2
- C14A A29G C43U G46A C96A A98U — lower, ≤ -4.2
- C14A A29U G94U U134G — lower, ≤ -4.2
- C14A A30U C69G A89U C95A — lower, ≤ -4.2
- C14A A39G G42A U82C G88C — lower, ≤ -4.2
- C14A A39U C69U C85A — lower, ≤ -4.2
- C14A A39U C87G — lower, ≤ -4.2
- C14A A40G A47C G50C C54G C76A C116U C132G — lower, ≤ -4.2
- C14A A40U C76U U78G G84A C103G G128A G141C — lower, ≤ -4.2
- C14A A41C G94C — lower, -2.95
- C14A A47U C54U C76G G83A G86A C87A G88C A89C G92C A138G — lower, ≤ -4.2
- C14A A47U G86A A91G — lower, ≤ -4.2
- C14A A49C G84A A115C — lower, ≤ -4.2
- C14A A49C G86U U111G U139A U144G — lower, ≤ -4.2
- C14A A52G G94U U135G C149G — lower, ≤ -4.2
- C14A A60G G70C A107C U111A — lower, ≤ -4.2
- C14A A60G U61A A98G U109G C149A — lower, ≤ -4.2
- C14A A60G U77G C87U C132G — lower, ≤ -4.2
- C14A A73G G80A G83U C93G C125U U130G A150C — lower, ≤ -4.2
- C14A A73G G86A A98U — lower, -3.58
- C14A A91C — lower, ≤ -4.2
- C14A C27G — lower, ≤ -4.2
- C14A C32G C35G C57G G92A C95A A121U — lower, ≤ -4.2
- C14A C32U A52U C85G U90A A115C — lower, ≤ -4.2
- C14A C32U G84U G100U C103G — lower, ≤ -4.2
- C14A C35G A37C G42U G94C G133U A138G A150U — lower, ≤ -4.2
- C14A C38U A40C C57U C75G — lower, ≤ -4.2
- C14A C38U C96G A119C C149G — lower, ≤ -4.2
- C14A C43A C85U U104G A115C A120G G140A — lower, ≤ -4.2
- C14A C57A C87U C93U U101C U134A G141C — lower, ≤ -4.2
- C14A C72G A73U C87G — lower, ≤ -4.2
- C14A C75A — lower, ≤ -4.2
- C14A C75A C99U A147C — lower, ≤ -4.2
- C14A C76G C87A A119G A138C U148A — lower, ≤ -4.2
- C14A C85G C129U — lower, ≤ -4.2
- C14A C87A A97U G143A — lower, ≤ -4.2
- C14A C93G — lower, ≤ -4.2
- C14A G25A U61A G74U — lower, ≤ -4.2
- C14A G25C G46U C54U G67A U78C G83C G88C G94A C108U — lower, ≤ -4.2
- C14A G34A A40C U55G C87G C114G G117U A121C U139A — lower, ≤ -4.2
- C14A G34U G74C G84U G143A — lower, ≤ -4.2
- C14A G48C A52G C57A G70A U77A A91G — lower, ≤ -4.2
- C14A G48U C93A A107G G126U U144G — lower, ≤ -4.2
- C14A G50C A66U G81U C87A U145A — lower, ≤ -4.2
- C14A G50C C51A G71A G86U G100U A122G — lower, ≤ -4.2

Reference: the RNAGym collection of RNA variant scans (doi:10.1073/pnas.2313332121)
